For 11 sequences, enrichment results are on record in the supplement of paper PMC12230231.

± gives the standard deviation of the averaged measurements. Restriction of a single-cycle SIVsab GFP reporter by TRIM5α v1-loop variants in CRFK cells. Human variants: read share among cells still uninfected after two challenges over input, higher = gained restriction. Rhesus variants: share among infected cells over input, higher = lost restriction. Reporter dose not given per row. No active / inactive call per row; the paper calls a change when both replicates lie above its controls (mean + 2 SD of stop or wild-type variants, or the top frameshift score). Residues outside the varied loop are taken from Swiss-Prot. The paper reads the human single-substitution scores as noise; they and the rhesus combinations repeat poorly (rank correlation 0.3 to 0.4), indel scores repeat only for the top variants, rhesus substitutions well (0.9).

For this series, the system named is SIVsab (simian immunodeficiency virus of sabaeus monkeys), single-cycle GFP reporter, in CRFK cells. Kind of series: enrichment among infected cells over input (fold); higher = weaker restriction. To be noted: library: human / rhesus combinations. As to the method: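 Pools of CRFK cells expressing variants of the TRIM5α v1 loop were challenged with the single-cycle reporter, sorted by GFP and sequenced; mean of two replicates.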
In the case of “MASGILLNVKEEVTCPICLELLTEPLSLHCGHSFCQACITANHKKSMLYKEGERSCPVCRISYQPENIQPNRHVANIVEKLREVKLSPEEGQKVDHCARHGEKLLLFCQEDSKVICWLCERSQEHRGHHTFLMEEVAQEYHVKLQTALEMLRQKQQEAEKLEADIREEKASWKIQIDYDKTNVSADFEQLREILDWEESNELQNLEKEEEDILKSLTKSETEMVQQTQYMRELISELEHRLQGSMMDLLQGVDGIIKRIENMTLKKPKTFHKNQRRVFRAPDLKGMLDMFRELTDARRYWVDVTLAPNNISHAVIAEDKRQVSSRNPQIMYGARGTLYTFPSLVNFNYCTGVLGSQSITSGKHYWEVDVSKKSAWILGVCAGFQSDAMYNIEQNENYQPKYGYWVIGLQEGVKYSVFQDGSSHTPFAPFIVPLSVIICPDRVGVFVDYEACTVSFFNITNHGFLIYKFSQCSFSKPVFPYLNPRKCTVPMTLCSPSS [rhesus TRIM5α, 332-344 = GARGTLYTFPSLV]”, the enrichment worked out at 3.02 ± 3.1.
With “MASGILLNVKEEVTCPICLELLTEPLSLHCGHSFCQACITANHKKSMLYKEGERSCPVCRISYQPENIQPNRHVANIVEKLREVKLSPEEGQKVDHCARHGEKLLLFCQEDSKVICWLCERSQEHRGHHTFLMEEVAQEYHVKLQTALEMLRQKQQEAEKLEADIREEKASWKIQIDYDKTNVSADFEQLREILDWEESNELQNLEKEEEDILKSLTKSETEMVQQTQYMRELISELEHRLQGSMMDLLQGVDGIIKRIENMTLKKPKTFHKNQRRVFRAPDLKGMLDMFRELTDARRYWVDVTLAPNNISHAVIAEDKRQVSSRNPQIMYGARGTLYTFPTFTNFNYCTGVLGSQSITSGKHYWEVDVSKKSAWILGVCAGFQSDAMYNIEQNENYQPKYGYWVIGLQEGVKYSVFQDGSSHTPFAPFIVPLSVIICPDRVGVFVDYEACTVSFFNITNHGFLIYKFSQCSFSKPVFPYLNPRKCTVPMTLCSPSS [rhesus TRIM5α, 332-344 = GARGTLYTFPTFT]” the figure was 1.73 ± 1.5; with “MASGILLNVKEEVTCPICLELLTEPLSLHCGHSFCQACITANHKKSMLYKEGERSCPVCRISYQPENIQPNRHVANIVEKLREVKLSPEEGQKVDHCARHGEKLLLFCQEDSKVICWLCERSQEHRGHHTFLMEEVAQEYHVKLQTALEMLRQKQQEAEKLEADIREEKASWKIQIDYDKTNVSADFEQLREILDWEESNELQNLEKEEEDILKSLTKSETEMVQQTQYMRELISELEHRLQGSMMDLLQGVDGIIKRIENMTLKKPKTFHKNQRRVFRAPDLKGMLDMFRELTDARRYWVDVTLAPNNISHAVIAEDKRQVSSRNPQIMYGARGTLYTFPTLTNFNYCTGVLGSQSITSGKHYWEVDVSKKSAWILGVCAGFQSDAMYNIEQNENYQPKYGYWVIGLQEGVKYSVFQDGSSHTPFAPFIVPLSVIICPDRVGVFVDYEACTVSFFNITNHGFLIYKFSQCSFSKPVFPYLNPRKCTVPMTLCSPSS [rhesus TRIM5α, 332-344 = GARGTLYTFPTLT]”, 0.336 ± 0.0039; with “MASGILLNVKEEVTCPICLELLTEPLSLHCGHSFCQACITANHKKSMLYKEGERSCPVCRISYQPENIQPNRHVANIVEKLREVKLSPEEGQKVDHCARHGEKLLLFCQEDSKVICWLCERSQEHRGHHTFLMEEVAQEYHVKLQTALEMLRQKQQEAEKLEADIREEKASWKIQIDYDKTNVSADFEQLREILDWEESNELQNLEKEEEDILKSLTKSETEMVQQTQYMRELISELEHRLQGSMMDLLQGVDGIIKRIENMTLKKPKTFHKNQRRVFRAPDLKGMLDMFRELTDARRYWVDVTLAPNNISHAVIAEDKRQVSSRNPQIMYGARGTLYTFPTLVNFNYCTGVLGSQSITSGKHYWEVDVSKKSAWILGVCAGFQSDAMYNIEQNENYQPKYGYWVIGLQEGVKYSVFQDGSSHTPFAPFIVPLSVIICPDRVGVFVDYEACTVSFFNITNHGFLIYKFSQCSFSKPVFPYLNPRKCTVPMTLCSPSS [rhesus TRIM5α, 332-344 = GARGTLYTFPTLV]”, 3.79 ± 2.5.
The figure for “MASGILLNVKEEVTCPICLELLTEPLSLHCGHSFCQACITANHKKSMLYKEGERSCPVCRISYQPENIQPNRHVANIVEKLREVKLSPEEGQKVDHCARHGEKLLLFCQEDSKVICWLCERSQEHRGHHTFLMEEVAQEYHVKLQTALEMLRQKQQEAEKLEADIREEKASWKIQIDYDKTNVSADFEQLREILDWEESNELQNLEKEEEDILKSLTKSETEMVQQTQYMRELISELEHRLQGSMMDLLQGVDGIIKRIENMTLKKPKTFHKNQRRVFRAPDLKGMLDMFRELTDARRYWVDVTLAPNNISHAVIAEDKRQVSSRNPQIMYGARGTLYTFQSFTNFNYCTGVLGSQSITSGKHYWEVDVSKKSAWILGVCAGFQSDAMYNIEQNENYQPKYGYWVIGLQEGVKYSVFQDGSSHTPFAPFIVPLSVIICPDRVGVFVDYEACTVSFFNITNHGFLIYKFSQCSFSKPVFPYLNPRKCTVPMTLCSPSS [rhesus TRIM5α, 332-344 = GARGTLYTFQSFT]” is 1.3 ± 0.024; for “MASGILLNVKEEVTCPICLELLTEPLSLHCGHSFCQACITANHKKSMLYKEGERSCPVCRISYQPENIQPNRHVANIVEKLREVKLSPEEGQKVDHCARHGEKLLLFCQEDSKVICWLCERSQEHRGHHTFLMEEVAQEYHVKLQTALEMLRQKQQEAEKLEADIREEKASWKIQIDYDKTNVSADFEQLREILDWEESNELQNLEKEEEDILKSLTKSETEMVQQTQYMRELISELEHRLQGSMMDLLQGVDGIIKRIENMTLKKPKTFHKNQRRVFRAPDLKGMLDMFRELTDARRYWVDVTLAPNNISHAVIAEDKRQVSSRNPQIMYGARGTLYTFQSFVNFNYCTGVLGSQSITSGKHYWEVDVSKKSAWILGVCAGFQSDAMYNIEQNENYQPKYGYWVIGLQEGVKYSVFQDGSSHTPFAPFIVPLSVIICPDRVGVFVDYEACTVSFFNITNHGFLIYKFSQCSFSKPVFPYLNPRKCTVPMTLCSPSS [rhesus TRIM5α, 332-344 = GARGTLYTFQSFV]” it is 0.719 ± 0.16; for “MASGILLNVKEEVTCPICLELLTEPLSLHCGHSFCQACITANHKKSMLYKEGERSCPVCRISYQPENIQPNRHVANIVEKLREVKLSPEEGQKVDHCARHGEKLLLFCQEDSKVICWLCERSQEHRGHHTFLMEEVAQEYHVKLQTALEMLRQKQQEAEKLEADIREEKASWKIQIDYDKTNVSADFEQLREILDWEESNELQNLEKEEEDILKSLTKSETEMVQQTQYMRELISELEHRLQGSMMDLLQGVDGIIKRIENMTLKKPKTFHKNQRRVFRAPDLKGMLDMFRELTDARRYWVDVTLAPNNISHAVIAEDKRQVSSRNPQIMYGARGTLYTFQSLTNFNYCTGVLGSQSITSGKHYWEVDVSKKSAWILGVCAGFQSDAMYNIEQNENYQPKYGYWVIGLQEGVKYSVFQDGSSHTPFAPFIVPLSVIICPDRVGVFVDYEACTVSFFNITNHGFLIYKFSQCSFSKPVFPYLNPRKCTVPMTLCSPSS [rhesus TRIM5α, 332-344 = GARGTLYTFQSLT]” it is 1.21 ± 0.061.
With “MASGILLNVKEEVTCPICLELLTEPLSLHCGHSFCQACITANHKKSMLYKEGERSCPVCRISYQPENIQPNRHVANIVEKLREVKLSPEEGQKVDHCARHGEKLLLFCQEDSKVICWLCERSQEHRGHHTFLMEEVAQEYHVKLQTALEMLRQKQQEAEKLEADIREEKASWKIQIDYDKTNVSADFEQLREILDWEESNELQNLEKEEEDILKSLTKSETEMVQQTQYMRELISELEHRLQGSMMDLLQGVDGIIKRIENMTLKKPKTFHKNQRRVFRAPDLKGMLDMFRELTDARRYWVDVTLAPNNISHAVIAEDKRQVSSRNPQIMYGARGTLYTFQSLVNFNYCTGVLGSQSITSGKHYWEVDVSKKSAWILGVCAGFQSDAMYNIEQNENYQPKYGYWVIGLQEGVKYSVFQDGSSHTPFAPFIVPLSVIICPDRVGVFVDYEACTVSFFNITNHGFLIYKFSQCSFSKPVFPYLNPRKCTVPMTLCSPSS [rhesus TRIM5α, 332-344 = GARGTLYTFQSLV]” the figure was 0.772 ± 0.066; with “MASGILLNVKEEVTCPICLELLTEPLSLHCGHSFCQACITANHKKSMLYKEGERSCPVCRISYQPENIQPNRHVANIVEKLREVKLSPEEGQKVDHCARHGEKLLLFCQEDSKVICWLCERSQEHRGHHTFLMEEVAQEYHVKLQTALEMLRQKQQEAEKLEADIREEKASWKIQIDYDKTNVSADFEQLREILDWEESNELQNLEKEEEDILKSLTKSETEMVQQTQYMRELISELEHRLQGSMMDLLQGVDGIIKRIENMTLKKPKTFHKNQRRVFRAPDLKGMLDMFRELTDARRYWVDVTLAPNNISHAVIAEDKRQVSSRNPQIMYGARGTLYTFQTFTNFNYCTGVLGSQSITSGKHYWEVDVSKKSAWILGVCAGFQSDAMYNIEQNENYQPKYGYWVIGLQEGVKYSVFQDGSSHTPFAPFIVPLSVIICPDRVGVFVDYEACTVSFFNITNHGFLIYKFSQCSFSKPVFPYLNPRKCTVPMTLCSPSS [rhesus TRIM5α, 332-344 = GARGTLYTFQTFT]”, 1.48 ± 0.32.
Take “MASGILLNVKEEVTCPICLELLTEPLSLHCGHSFCQACITANHKKSMLYKEGERSCPVCRISYQPENIQPNRHVANIVEKLREVKLSPEEGQKVDHCARHGEKLLLFCQEDSKVICWLCERSQEHRGHHTFLMEEVAQEYHVKLQTALEMLRQKQQEAEKLEADIREEKASWKIQIDYDKTNVSADFEQLREILDWEESNELQNLEKEEEDILKSLTKSETEMVQQTQYMRELISELEHRLQGSMMDLLQGVDGIIKRIENMTLKKPKTFHKNQRRVFRAPDLKGMLDMFRELTDARRYWVDVTLAPNNISHAVIAEDKRQVSSRNPQIMYGARGTLYTFQTFVNFNYCTGVLGSQSITSGKHYWEVDVSKKSAWILGVCAGFQSDAMYNIEQNENYQPKYGYWVIGLQEGVKYSVFQDGSSHTPFAPFIVPLSVIICPDRVGVFVDYEACTVSFFNITNHGFLIYKFSQCSFSKPVFPYLNPRKCTVPMTLCSPSS [rhesus TRIM5α, 332-344 = GARGTLYTFQTFV]”: the enrichment was determined as 0.978 ± 0.51.
Take “MASGILLNVKEEVTCPICLELLTEPLSLHCGHSFCQACITANHKKSMLYKEGERSCPVCRISYQPENIQPNRHVANIVEKLREVKLSPEEGQKVDHCARHGEKLLLFCQEDSKVICWLCERSQEHRGHHTFLMEEVAQEYHVKLQTALEMLRQKQQEAEKLEADIREEKASWKIQIDYDKTNVSADFEQLREILDWEESNELQNLEKEEEDILKSLTKSETEMVQQTQYMRELISELEHRLQGSMMDLLQGVDGIIKRIENMTLKKPKTFHKNQRRVFRAPDLKGMLDMFRELTDARRYWVDVTLAPNNISHAVIAEDKRQVSSRNPQIMYGARGTLYTFQTLTNFNYCTGVLGSQSITSGKHYWEVDVSKKSAWILGVCAGFQSDAMYNIEQNENYQPKYGYWVIGLQEGVKYSVFQDGSSHTPFAPFIVPLSVIICPDRVGVFVDYEACTVSFFNITNHGFLIYKFSQCSFSKPVFPYLNPRKCTVPMTLCSPSS [rhesus TRIM5α, 332-344 = GARGTLYTFQTLT]”: the enrichment worked out at 1.79 ± 1.4.
